# The other results are listed elsewhere or left out.
# Legend:
# Experiment in all cases: glycan array binding signal (z-score within array); higher = stronger binding
# Settings in all cases: glycan notation: IUPAC condensed, linker removed
# [1] = biological target: Man(a1-2)Man(a1-3)[Man(a1-2)Man(a1-6)]Man
# Procedure, shortened: (§1)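 Glycan array data were curated from 3228 arrays in the Consortium for Functional Glycomics database and kept only where the protein sequence was available. Glycan names were converted to IUPAC-condensed notation, and columns mapping to the same glycan were averaged. The binding signal is a within-array Z-score, averaged across arrays of the same protein sequence at different concentrations or buffers and across linkers. Negative Z-scores can be read as non-binding.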
# [2] = biological target: Man(a1-2)Man(a1-3)[Man(a1-2)Man(a1-6)]Man(a1-6)[Man(a1-2)Man(a1-2)Man(a1-3)]Man
# Procedure, shortened: as §1
# [3] = biological target: Man(a1-2)Man(a1-3)[Man(a1-2)Man(a1-6)]Man(a1-6)[Man(a1-2)Man(a1-2)Man(a1-3)]Man(b1-4)GlcNAc(b1-4)GlcNAc
# Procedure, shortened: as §1
# [4] = biological target: Man(a1-2)Man(a1-3)[Man(a1-6)]Man(a1-6)[Man(a1-2)Man(a1-3)]Man(b1-4)GlcNAc(b1-4)GlcNAc
# Procedure, shortened: as §1
# [5] = biological target: Man(a1-2)Man(a1-6)[Man(a1-3)]Man(a1-6)[Man(a1-2)Man(a1-2)Man(a1-3)]Man
# Procedure, shortened: as §1
# [6] = biological target: Man(a1-2)Man(a1-6)[Man(a1-3)]Man(a1-6)[Man(a1-2)Man(a1-2)Man(a1-3)]Man(b1-4)GlcNAc(b1-4)GlcNAc
# Procedure, shortened: as §1
# [7] = biological target: Man(a1-3)[Man(a1-6)]Man
# Procedure, shortened: as §1
# [8] = biological target: Man(a1-3)[Man(a1-6)]Man(a1-6)[Man(a1-2)Man(a1-3)]Man(b1-4)GlcNAc(b1-4)GlcNAc
# Procedure, shortened: as §1
# [9] = biological target: Man(a1-3)[Man(a1-6)]Man(a1-6)[Man(a1-3)]Man
# Procedure, shortened: as §1
# [10] = biological target: Man(a1-3)[Man(a1-6)]Man(a1-6)[Man(a1-3)]Man(b1-4)GlcNAc(b1-4)GlcNAc
# Procedure, shortened: as §1
# [11] = biological target: Man(a1-3)[Man(a1-6)]Man(b1-4)GlcNAc(b1-4)GlcNAc
# Procedure, shortened: as §1
# [12] = biological target: Man(a1-3)[Man(a1-6)]Man(b1-4)GlcNAc(b1-4)[Fuc(a1-6)]GlcNAc
# Procedure, shortened: as §1
# [13] = biological target: Man(a1-6)Man
# Procedure, shortened: as §1
# [14] = biological target: Man(b1-4)GlcNAc
# Procedure, shortened: as §1
# [15] = biological target: MurNAc(b1-4)GlcNAc
# Procedure, shortened: as §1
# [16] = biological target: Neu5Ac(a2-3)Gal
# Procedure, shortened: as §1
# [17] = biological target: Neu5Ac(a2-3)Gal(b1-3)GalNAc
# Procedure, shortened: as §1
# [18] = biological target: Neu5Ac(a2-3)Gal(b1-3)GalNAc(b1-3)Gal(a1-4)Gal(b1-4)Glc
# Procedure, shortened: as §1
# [19] = biological target: Neu5Ac(a2-3)Gal(b1-3)GalNAc(b1-4)Gal(b1-4)Glc
# Procedure, shortened: as §1
# [20] = biological target: Neu5Ac(a2-3)Gal(b1-3)GalNAc(b1-4)[Neu5Ac(a2-3)]Gal(b1-4)Glc
# Procedure, shortened: as §1
# [21] = biological target: Neu5Ac(a2-3)Gal(b1-3)GalNAc(b1-4)[Neu5Ac(a2-8)Neu5Ac(a2-3)]Gal(b1-4)Glc
# Procedure, shortened: as §1
# [22] = biological target: Neu5Ac(a2-3)Gal(b1-3)GalNAc6S
# Procedure, shortened: as §1
# [23] = biological target: Neu5Ac(a2-3)Gal(b1-3)GlcNAc
# Procedure, shortened: as §1
# [24] = biological target: Neu5Ac(a2-3)Gal(b1-3)GlcNAc(b1-2)Man
# Procedure, shortened: as §1
# [25] = biological target: Neu5Ac(a2-3)Gal(b1-3)GlcNAc(b1-2)Man(a1-3)[GlcNAc(b1-4)][Neu5Ac(a2-3)Gal(b1-3)GlcNAc(b1-2)Man(a1-6)]Man(b1-4)GlcNAc(b1-4)GlcNAc
# Procedure, shortened: as §1
# [26] = biological target: Neu5Ac(a2-3)Gal(b1-3)GlcNAc(b1-2)Man(a1-3)[Neu5Ac(a2-3)Gal(b1-3)GlcNAc(b1-2)Man(a1-6)]Man(b1-4)GlcNAc(b1-4)GlcNAc
# Procedure, shortened: as §1
# [27] = biological target: Neu5Ac(a2-3)Gal(b1-3)GlcNAc(b1-2)[Neu5Ac(a2-3)Gal(b1-3)GlcNAc(b1-4)]Man(a1-6)[Neu5Ac(a2-3)Gal(b1-3)GlcNAc(b1-2)Man(a1-3)]Man(b1-4)GlcNAc(b1-4)GlcNAc
# Procedure, shortened: as §1
# [28] = biological target: Neu5Ac(a2-3)Gal(b1-3)GlcNAc(b1-3)Gal(b1-3)GlcNAc
# Procedure, shortened: as §1
# [29] = biological target: Neu5Ac(a2-3)Gal(b1-3)GlcNAc(b1-3)Gal(b1-4)GlcNAc
# Procedure, shortened: as §1
# [30] = biological target: Neu5Ac(a2-3)Gal(b1-3)GlcNAc(b1-3)GalNAc
# Procedure, shortened: as §1
# [31] = biological target: Neu5Ac(a2-3)Gal(b1-3)GlcNAc(b1-6)GalNAc
# Procedure, shortened: as §1
# [32] = biological target: Neu5Ac(a2-3)Gal(b1-3)GlcNAc6S
# Procedure, shortened: as §1
# [33] = biological target: Neu5Ac(a2-3)Gal(b1-3)[Fuc(a1-4)]GlcNAc
# Procedure, shortened: as §1
# [34] = biological target: Neu5Ac(a2-3)Gal(b1-3)[Fuc(a1-4)]GlcNAc(b1-3)Gal(b1-3)[Fuc(a1-4)]GlcNAc
# Procedure, shortened: as §1
# [35] = biological target: Neu5Ac(a2-3)Gal(b1-3)[Fuc(a1-4)]GlcNAc(b1-3)Gal(b1-4)[Fuc(a1-3)]GlcNAc
# Procedure, shortened: as §1
# [36] = biological target: Neu5Ac(a2-3)Gal(b1-3)[GlcNAc(b1-6)]GalNAc
# Procedure, shortened: as §1
# [37] = biological target: Neu5Ac(a2-3)Gal(b1-3)[Neu5Ac(a2-6)]GalNAc
# Procedure, shortened: as §1
# [38] = biological target: Neu5Ac(a2-3)Gal(b1-3)[Neu5Ac(a2-6)]GlcNAc(b1-3)[Fuc(a1-3)[Gal(b1-4)]GlcNAc(b1-6)]Gal(b1-4)Glc
# Procedure, shortened: as §1
# [39] = biological target: Neu5Ac(a2-3)Gal(b1-3)]Neu5Ac(a2-3)Gal(b1-4)]GlcNAc
# Procedure, shortened: as §1
# [40] = biological target: Neu5Ac(a2-3)Gal(b1-4)Glc
# Procedure, shortened: as §1
# [41] = biological target: Neu5Ac(a2-3)Gal(b1-4)GlcNAc
# Procedure, shortened: as §1
# [42] = biological target: Neu5Ac(a2-3)Gal(b1-4)GlcNAc(b1-2)Man
# Procedure, shortened: as §1
# [43] = biological target: Neu5Ac(a2-3)Gal(b1-4)GlcNAc(b1-2)Man(a1-3)[GlcNAc(b1-4)][Neu5Ac(a2-3)Gal(b1-4)GlcNAc(b1-2)Man(a1-6)]Man(b1-4)GlcNAc(b1-4)GlcNAc
# Procedure, shortened: as §1
# [44] = biological target: Neu5Ac(a2-3)Gal(b1-4)GlcNAc(b1-2)Man(a1-3)[Neu5Ac(a2-3)Gal(b1-4)GlcNAc(b1-2)Man(a1-6)]Man(b1-4)GlcNAc(b1-4)GlcNAc
# Procedure, shortened: as §1
# [45] = biological target: Neu5Ac(a2-3)Gal(b1-4)GlcNAc(b1-2)Man(a1-3)[Neu5Ac(a2-3)Gal(b1-4)GlcNAc(b1-2)Man(a1-6)]Man(b1-4)GlcNAc(b1-4)[Fuc(a1-6)]GlcNAc
# Procedure, shortened: as §1
binder,measurement,setting,value
"Siglec-E (Mus musculus), Q91Y57 (protein) MLLLLLLLLLWGIKGVEGQNPQEVFTLNVERKVVVQEGLCVLVPCNFSYLKKRLTDWTDSDPVHGFWYREGTDRRKDSIVATNNPIRKAVKETRNRFFLLGDPWRNDCSLNIREIRKKDAGLYFFRLERGKTKYNYMWDKMTLVVTALTNTPQILLPETLEAGHPSNLTCSVPWDCGWTAPPIFSWTGTSVSFLSTNTTGSSVLTITPQPQDHGTNLTCQVTLPGTNVSTRMTTRLNVSYAPKNLTVTIYQGADSVSTILKNGSSLPISEGQSLRLICSTDSYPPANLSWSWDNLTLCPSKLSKPGLLELFPVHLKHGGVYTCQAQHALGSQHISLSLSPQSSATLSEMMMGTFVGSGVTALLFLSVCILLLAVRSYRRKPARPAVVAPHPDALKVSVSQNPLVESQADDSSEPLPSILEAAPSSTEEEIHYATLSFHEMKPMNLWGQQDTTTEYSEIKFPQRTAWP",glycan array binding signal (z-score),[1],-0.477
same,glycan array binding signal (z-score),[2],-0.181
same,glycan array binding signal (z-score),[3],-0.574
same,glycan array binding signal (z-score),[4],-0.61
same,glycan array binding signal (z-score),[5],-0.285
same,glycan array binding signal (z-score),[6],-0.01
same,glycan array binding signal (z-score),[7],0.027
same,glycan array binding signal (z-score),[8],-0.246
same,glycan array binding signal (z-score),[9],-0.31
same,glycan array binding signal (z-score),[10],0.047
same,glycan array binding signal (z-score),[11],-0.416
same,glycan array binding signal (z-score),[12],-0.179
same,glycan array binding signal (z-score),[13],0.619
same,glycan array binding signal (z-score),[14],-0.501
same,glycan array binding signal (z-score),[15],-0.464
same,glycan array binding signal (z-score),[16],-0.19
same,glycan array binding signal (z-score),[17],2.27
same,glycan array binding signal (z-score),[18],-0.278
same,glycan array binding signal (z-score),[19],-0.112
same,glycan array binding signal (z-score),[20],-0.181
same,glycan array binding signal (z-score),[21],0.68
same,glycan array binding signal (z-score),[22],0.425
same,glycan array binding signal (z-score),[23],-0.503
same,glycan array binding signal (z-score),[24],0.009
same,glycan array binding signal (z-score),[25],-0.264
same,glycan array binding signal (z-score),[26],6.41
same,glycan array binding signal (z-score),[27],0.43
same,glycan array binding signal (z-score),[28],-0.603
same,glycan array binding signal (z-score),[29],-0.457
same,glycan array binding signal (z-score),[30],-0.226
same,glycan array binding signal (z-score),[31],-0.343
same,glycan array binding signal (z-score),[32],0.3
same,glycan array binding signal (z-score),[33],-0.348
same,glycan array binding signal (z-score),[34],-0.297
same,glycan array binding signal (z-score),[35],-0.475
same,glycan array binding signal (z-score),[36],-0.28
same,glycan array binding signal (z-score),[37],0.525
same,glycan array binding signal (z-score),[38],-0.564
same,glycan array binding signal (z-score),[39],-0.186
same,glycan array binding signal (z-score),[40],3.95
same,glycan array binding signal (z-score),[41],-0.415
same,glycan array binding signal (z-score),[42],2.6
same,glycan array binding signal (z-score),[43],-0.302
same,glycan array binding signal (z-score),[44],-0.499
same,glycan array binding signal (z-score),[45],-0.371
